Laboratory results taken from PubChem BioAssay AID686978 (National Center for Advancing Translational Sciences (NCATS), 2013).
Out of some 420,000 compounds screened, about 64,000 (15%) were called active. Inconclusive means that the source gave no clear call. Such entries were picked first, then a sample of the others. Calls come from the whole dose curve; as a rule, active = well fitted inhibition curve with a large enough effect; inconclusive = small, poorly fitted or top-dose-only effect; inactive = flat fitted curve, though single readings scatter. Potencies of inconclusive entries are left out as doubtful fits.

assay: qHTS for Inhibitors of human tyrosyl-DNA phosphodiesterase 1 (TDP1): qHTS in cells in absence of CPT; conditions: DT40 Tdp1-/- hTDP1 cells, no CPT, ATP luminescence, 48 h; activity change, negative = growth inhibition: at 46.2 µM (top of the series) unless noted; note: nearly all actives have a fitted effect of over 55% in size
In short: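 Readout: luminescence from CellTiter-Glo after 30 min in the dark at RT. Cells: DT40 Tdp1-/- with stable hTDP1, 400/well. Exposure: compounds alone, ≥48 hr, 37 °C.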
% is set by controls: 0 for no effect and ±100 for the full control effect; potency is the fitted concentration of half-maximal effect; tags give direction and shape of the fitted curve.

Structure (SMILES)	Potency	activity change, negative = growth inhibition
COc1ccc(C(C2C(=O)CC(C)(C)CC2=O)C2C(=O)CC(C)(C)CC2=O)cc1	inactive	
CCN(CC)S(=O)(=O)c1ccc(Cl)c(NC(=O)COc2ccc(OC)cc2[N+](=O)[O-])c1	inconclusive [inhibitor, single point]	
CN(C)C(=O)c1ccc(-n2cccn2)nc1	inactive	
CC(=O)Nc1ccc(S(=O)(=O)N(C)CC(=O)NNC(=O)Cc2nc3ccccc3n2C)cc1	inactive	
COc1nc(Nc2ccc(OC)c(Cl)c2)nc(OC)n1	inconclusive [inhibitor, partial curve]	
COC(=O)c1c(-c2ccc(OC)cc2)sc2cc(OC)c(OC)cc12	inconclusive [inhibitor, single point]	
CCOC(=O)c1cnc2c(Cl)cc(Cl)cc2c1Nc1cc(C(=O)O)ccc1C	inconclusive [inhibitor, single point]	
Cc1cccc(N2C(=O)C(O)=C(C(=O)c3cccs3)C2c2ccccc2)n1 (stereo unspecified)	inconclusive [inhibitor, single point]	
NC(=O)c1ccc(Sc2nnc(-c3cccs3)n2CC2CCCO2)c([N+](=O)[O-])c1 (stereo unspecified)	inactive	
Cc1cccc2nc(Cn3c(=O)n(CCCC(=O)NCc4ccco4)c(=O)c4ccccc43)cc(=O)n12	inconclusive [inhibitor, single point]	
Cc1ccc(OCc2cc(C(=O)N(C)C3CCCc4ccccc43)no2)cc1C (stereo unspecified)	inactive	
Cc1ccccc1NS(=O)(=O)c1ccc(C(=O)NNC(=O)c2ccccc2O)cc1	inconclusive [inhibitor, single point]	
COc1ccc(S(=O)(=O)N2CCN(Cc3ccc4c(c3)OCO4)CC2)cc1C	inconclusive [inhibitor, single point]	
O=C(Nc1nnc(C2CCCCC2)s1)c1ccco1	inconclusive [inhibitor, full curve, poor fit]	
COc1ccc(-n2c(C)cc(C(=O)COC(=O)Cc3n[nH]c(=O)c4ccccc34)c2C)cc1	active: 9.2 µM	
Cc1cc(C(=O)NCc2ccccc2Cl)c2ccccc2n1	inconclusive [inhibitor, single point]	
COC(=O)C1=C(C)N(C)C(=O)NC1c1c(O)ccc2ccccc12 (stereo unspecified)	inconclusive [inhibitor, partial curve]	
O=C(N/N=C/c1ccncc1)c1ccc2c(c1)OCO2	inactive	
CCc1ccccc1NC(=O)Nc1cc(C(=O)NCc2cccc(F)c2)ccc1N1CCCC1	active: 2.59 µM	
O=C(NCCN1C(=O)S/C(=C\c2ccc(Cl)cc2Cl)C1=O)C1=COCCO1	active: 11.6 µM	
CC(=O)NC1C(Oc2cccc(C)c2)OC2COC(c3ccco3)OC2C1O (stereo unspecified)		inconclusive: -30.4% [inhibitor]
Cc1cc(OCCNCCO)cc(C)c1Cl	inconclusive [inhibitor, single point]	
COCCCn1c(=N)c(C(=O)NCc2ccco2)cc2c(=O)n3cccc(C)c3nc21	inconclusive [inhibitor, single point]	
OC(c1ccc(F)cc1)c1ncc(-c2cccc(C(F)(F)F)c2)[nH]1 (stereo unspecified)		inconclusive: -36.3% [inhibitor]

Structure (SMILES)	Potency	activity change, negative = growth inhibition
CCOC(=O)c1c(NC(=O)CSc2nnc(CNC(=O)c3ccco3)n2C)sc2c1CCC2	inconclusive [inhibitor, single point]	
Cc1oc(-c2cccc(Cl)c2)nc1CN1CCCC(C(=O)NCCc2ccc(Cl)cc2)C1 (stereo unspecified)	inconclusive [inhibitor, full curve]	
COC(=O)[C@]12CCCCC=C1N(CCc1ccc(OC)c(OC)c1)C(=O)[C@H](CC(=O)NCC1CCCCC1)C2	inconclusive [inhibitor, single point]	
CN1CCN(CC(O)COc2ccc(C(=O)O)cc2)CC1 (stereo unspecified)	inactive	
COC(=O)C(NC(C)=O)(Nc1ccc(C)cn1)C(F)(F)F (stereo unspecified)	inactive	
CN(CC(CC(=O)Nc1nncs1)c1ccccc1)S(=O)(=O)c1ccc(Br)cc1 (stereo unspecified)	inconclusive [inhibitor, single point]	
Cc1cccc(N=C2NC(=O)/C(=C/c3cccnc3)S2)c1	inconclusive [inhibitor, single point]	
O=C(CCCNS(=O)(=O)c1cccc2nsnc12)NCCc1ccccc1	inconclusive [inhibitor, partial curve]	
CCCCN(C)CCCNC(=O)C1CCC(CNS(=O)(=O)c2c(C)cc(C)cc2C)CC1 (stereo unspecified)	inconclusive [inhibitor, single point]	
C[C@H](NS(=O)(=O)c1ccc(Cl)cc1)C(=O)OCC(=O)N1CCOCC1	inactive	
O=C(NC(=S)Nc1cc(C(F)(F)F)ccc1N1CCOCC1)c1ccc(-c2cccc(Cl)c2)o1	inconclusive [inhibitor, partial curve, poor fit]	
CCn1c(SCc2cccc(Br)c2)nnc1-c1nonc1NC(C)=O	active: 23.1 µM	
Cc1cccc(OCCCN2CCCCCC2)c1	inactive	
COC(=O)c1ccc(CN2C(=O)C(C)N(C(=O)c3c(F)cccc3F)c3ccccc32)cc1 (stereo unspecified)	active: 8.2 µM	
NC(=O)c1csc(-c2ccncc2)n1	inactive	
COc1ccc(NC(=O)C(c2ccccc2F)n2c(=O)c(-c3cc4ccccc4[nH]3)nc3ccccc32)cc1 (stereo unspecified)	active: 13 µM	
COc1cc2c(cc1NC(=O)CSc1ccccn1)oc1ccccc12	inconclusive [inhibitor, single point]	
CCc1ccc(OCCCC(=O)NCc2ccco2)cc1	inconclusive [inhibitor, single point]	
Cc1cc(C)nc(-n2ncc3c2CC(c2cccc(Cl)c2)CC3=O)n1 (stereo unspecified)	inconclusive [inhibitor, single point]	
Cc1cc2[nH]c(=O)c(=O)[nH]c2cc1S(=O)(=O)NC1CCCCC1C (stereo unspecified)	inactive	
CC(=O)Nc1cc(C(=O)NCc2ccc(C)cc2)ccc1S(=O)(=O)c1ccc(Cl)cc1	active: 16.4 µM	
CCOc1ccc(CNc2ccc3c(c2)ncn3C(C)(C)C)cc1	active: 20.6 µM	
C=C1C=C(C(F)F)n2ncc(C(=O)NCCc3ccccc3OC)c2N1	active: 17.8 µM	
COc1cc2[nH]c(-c3cccc(F)c3)cc(=O)c2cc1OC	inconclusive [inhibitor, single point]	

Structure (SMILES)	Potency	activity change, negative = growth inhibition
CSc1cccc(NC(=O)Cn2c(=O)n(Cc3ccccc3)c(=O)c3sc4ccccc4c32)c1	inconclusive [inhibitor, single point]	
COc1ccc(N2CCN(Cc3cc(=O)c(OCC(=O)Nc4ccccc4)co3)CC2)cc1	inconclusive [inhibitor, partial curve]	
OCCC1CN(Cc2cn[nH]c2C2CCCCC2)CCN1C1CCCC1 (stereo unspecified)	inactive	
COc1ccc(CC(=O)Nc2ccc(C(=O)NC(C)(C)C)cc2)cc1	inconclusive [inhibitor, single point]	
Cc1ccc(N(CC(=O)NC(C)C)C(=O)CCC(=O)Nc2nccs2)c(C)c1	inactive	
O=C(COC(=O)COc1cccc(F)c1)Nc1nc2ccccc2s1	inactive	
COc1ccc(/C=N/NC(=O)c2ccc(COc3cccc4cccnc34)cc2)cc1O	active: 13 µM	
COc1cc(O)c(C(CC(=O)N2CCCC2)c2cc(OC)c(OC)c(OC)c2)c(OC)c1 (stereo unspecified)	inactive	
CC(=O)Oc1ccc(N2C(=O)C3C4C=CC(C5CC45)C3C2=O)cc1[N+](=O)[O-] (stereo unspecified)	inconclusive [inhibitor, single point]	
CCS(=O)(=O)N1Cc2ccccc2CC1C(=O)N(C)CC(=O)Nc1ccc(OC)cc1 (stereo unspecified)	inactive	
O=C(NCCC1CCCCN1S(=O)(=O)c1ccc(F)cc1)C(=O)NC1CCCC1 (stereo unspecified)	inconclusive [inhibitor, single point]	
CCOc1ccc(CCNC(=O)COC(=O)c2n[nH]c3ccccc23)cc1OCC	inconclusive [inhibitor, single point]	
CC(S(=O)(=O)c1ccccc1)S(=O)(=O)c1ccccc1	inactive	
CC1(OC(=O)CCc2ccccc2)C(=O)C=C2C=C(c3ccc(C#N)cc3)N(Cc3ccco3)C=C2C1=O (stereo unspecified)	inconclusive [inhibitor, single point]	
Cc1nn(CC(C)C)c(Cl)c1C(=O)NCC1CCCO1 (stereo unspecified)	inactive	
COC(=O)c1ccc(CN2CCN(CCCc3ccccc3)C(CCO)C2)cc1 (stereo unspecified)	inconclusive [inhibitor, partial curve, poor fit]	
Cc1ccc(CNC(=O)c2cc(-c3ccccc3)nn2CC2CC(c3cccnc3)=NO2)cc1 (stereo unspecified)	inconclusive [inhibitor, single point]	
Cc1cnc(CNc2cc(-c3ccoc3)ncn2)cn1	inactive	
Cc1cccc(NC(=S)NNC(=O)c2csc(C)c2)c1		inconclusive: -32% [inhibitor]
CC(C)C[C@@H](COCc1cccc(C(F)(F)F)c1)N1CCN(C(=O)c2ccc(C(F)(F)F)cc2)CCC1=O	inconclusive [inhibitor, single point]	
Cc1cc2nc(N)sc2cc1[N+](=O)[O-]	inconclusive [inhibitor, single point]	
NS(=O)(=O)c1ccc(N=Nc2c[nH]c(=O)c(O)c2)cc1	inconclusive [inhibitor, single point]	
CCOC(=O)c1cc(NC(=O)/C=C\C(=O)O)ccc1Cl	inactive	
